Where a chain is given by its changes, count along the chain named. The list shows a part of the results.

The source of these data is publication PMC9911399, “Two distinct binding modes provide the RNA-binding protein RbFox with extraordinary sequence specificity”.

B1: CUACUCC (DNA:RNA)
RNA: GGGAGACCGGAAUUCAGAUUGUCCCUACUCCUUAAAUCCCGUCGUAGCCACCA
DNA 1: CAATCTGAATTCCGGTCTCCC
DNA 2: TGGTGGCTACGACGGGATT
B2: UAGGGUA (DNA:RNA)
RNA: GGGAGACCGGAAUUCAGAUUGUCCUAGGGUAUUAAAUCCCGUCGUAGCCACCA
DNA 1: CAATCTGAATTCCGGTCTCCC
DNA 2: TGGTGGCTACGACGGGATT
B3: CGUGUAC (DNA:RNA)
RNA: B1 RNA with U26G, A27U, C28G, C30A
DNA 1: CAATCTGAATTCCGGTCTCCC
DNA 2: TGGTGGCTACGACGGGATT
B4: AUCUUUU (DNA:RNA)
RNA: B1 RNA with C25A, A27C, C28U, C30U, C31U
DNA 1: CAATCTGAATTCCGGTCTCCC
DNA 2: TGGTGGCTACGACGGGATT
B5: UGUGGCU (DNA:RNA)
RNA: B2 RNA with A26G, G27U, U30C, A31U
DNA 1: CAATCTGAATTCCGGTCTCCC
DNA 2: TGGTGGCTACGACGGGATT
B6: GCUCCGU (DNA:RNA)
RNA: B1 RNA with C25G, U26C, A27U, U29C, C30G, C31U
DNA 1: CAATCTGAATTCCGGTCTCCC
DNA 2: TGGTGGCTACGACGGGATT
B7: GGCAGAA (DNA:RNA)
RNA: B2 RNA with U25G, A26G, G27C, G28A, U30A
DNA 1: CAATCTGAATTCCGGTCTCCC
DNA 2: TGGTGGCTACGACGGGATT
B8: AGCAGAC (DNA:RNA)
RNA: B1 RNA with C25A, U26G, A27C, C28A, U29G, C30A
DNA 1: CAATCTGAATTCCGGTCTCCC
DNA 2: TGGTGGCTACGACGGGATT
B9: UGAUUAC (DNA:RNA)
RNA: B1 RNA with C25U, U26G, C28U, C30A
DNA 1: CAATCTGAATTCCGGTCTCCC
DNA 2: TGGTGGCTACGACGGGATT
B10: GGAAACU (DNA:RNA)
RNA: B1 RNA with C25G, U26G, C28A, U29A, C31U
DNA 1: CAATCTGAATTCCGGTCTCCC
DNA 2: TGGTGGCTACGACGGGATT
B11: GCAUGUU (DNA:RNA)
RNA: B2 RNA with U25G, A26C, G27A, G28U, A31U
DNA 1: CAATCTGAATTCCGGTCTCCC
DNA 2: TGGTGGCTACGACGGGATT
B12: UACUCGG (DNA:RNA)
RNA: B2 RNA with G27C, G28U, G29C, U30G, A31G
DNA 1: CAATCTGAATTCCGGTCTCCC
DNA 2: TGGTGGCTACGACGGGATT
B13: AAGUGCC (DNA:RNA)
RNA: B2 RNA with U25A, G28U, U30C, A31C
DNA 1: CAATCTGAATTCCGGTCTCCC
DNA 2: TGGTGGCTACGACGGGATT
B14: GAGCCCG (DNA:RNA)
RNA: B1 RNA with C25G, U26A, A27G, U29C, C31G
DNA 1: CAATCTGAATTCCGGTCTCCC
DNA 2: TGGTGGCTACGACGGGATT
B15: UGUCUCG (DNA:RNA)
RNA: B1 RNA with C25U, U26G, A27U, C31G
DNA 1: CAATCTGAATTCCGGTCTCCC
DNA 2: TGGTGGCTACGACGGGATT
B16: CUCAACA (DNA:RNA)
RNA: B1 RNA with A27C, C28A, U29A, C31A
DNA 1: CAATCTGAATTCCGGTCTCCC
DNA 2: TGGTGGCTACGACGGGATT
B17: GUAGGGG (DNA:RNA)
RNA: B1 RNA with C25G, C28G, U29G, C30G, C31G
DNA 1: CAATCTGAATTCCGGTCTCCC
DNA 2: TGGTGGCTACGACGGGATT
B18: UCAAGAU (DNA:RNA)
RNA: B2 RNA with A26C, G27A, G28A, U30A, A31U
DNA 1: CAATCTGAATTCCGGTCTCCC
DNA 2: TGGTGGCTACGACGGGATT
B19: UGAGCCU (DNA:RNA)
RNA: B1 RNA with C25U, U26G, C28G, U29C, C31U
DNA 1: CAATCTGAATTCCGGTCTCCC
DNA 2: TGGTGGCTACGACGGGATT
B20: UGUAAGG (DNA:RNA)
RNA: B2 RNA with A26G, G27U, G28A, G29A, U30G, A31G
DNA 1: CAATCTGAATTCCGGTCTCCC
DNA 2: TGGTGGCTACGACGGGATT

In the assay the target is T1, RBFOX1 RRM (Homo sapiens, UniProt Q9NWB1 109-208).
T1 sequence: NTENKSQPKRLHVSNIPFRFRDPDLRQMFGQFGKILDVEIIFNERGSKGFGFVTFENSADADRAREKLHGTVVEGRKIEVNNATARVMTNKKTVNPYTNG
Nature of the assay: EMSA; HiTS-Eq, 1 nM pool, 10 min; buffer printed only for the single-RNA assays: 10 mM Tris pH 7.5, 150 mM NaCl, 3.4 mM EDTA, 0.001% NP-40, 30 C. The note with it: tags: His6 N-terminal (pET28a); label: 5' 32P. The gist of the method: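 Purified wild-type or mutant RbFox RRM at increasing concentrations was equilibrated with 1 nM of 5′-radiolabelled RNA carrying 7 randomized nucleotides for 10 min in 50 µL. Unbound RNA was separated by 8% native PAGE and sequenced. Relative association constants came from read-count changes of each RNA species compared with the control reaction, normalised to the cognate motif.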
Take B1: the binding signal is 0.00512 KA relative to UGCAUGU.

For B2, the binding signal is 0.0162 KA relative to UGCAUGU.

As to B3, the binding signal was 0.00932 KA relative to UGCAUGU. Next, B4: 0.00764 KA relative to UGCAUGU; B5: 0.0283 KA relative to UGCAUGU.

B6: the binding signal was 0.00637 KA relative to UGCAUGU.

B7: the binding signal was 0.0103 KA relative to UGCAUGU. Next, B8: 0.00935 KA relative to UGCAUGU. The result for B9 reads 0.0139 KA relative to UGCAUGU; that for B10, 0.00773 KA relative to UGCAUGU. The result for B11 reads 0.635 KA relative to UGCAUGU; that for B12, 0.00949 KA relative to UGCAUGU; that for B13, 0.0108 KA relative to UGCAUGU. Turning to B14, the binding signal is 0.0175 KA relative to UGCAUGU.

For the molecule B15, the binding signal was 0.0156 KA relative to UGCAUGU.

On to B16, for which the binding signal was 0.00114 KA relative to UGCAUGU.

As for B17, the binding signal is 0.0113 KA relative to UGCAUGU. The result for B18 reads 0.0076 KA relative to UGCAUGU; that for B19, 0.0138 KA relative to UGCAUGU. Next, B20: 0.00889 KA relative to UGCAUGU.
